# The other results are listed elsewhere or left out.
# Columns and labels:
# Assay in all cases: glycan array binding signal (z-score within array); higher = stronger binding
# Conditions in all cases: glycan notation: IUPAC condensed, linker removed
# Neu5Ac(a2-3)Gal(b1-4)Glc = biological target: Neu5Ac(a2-3)Gal(b1-4)Glc
# Outline: (§1)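 Glycan array data were curated from 3228 arrays in the Consortium for Functional Glycomics database and kept only where the protein sequence was available. Glycan names were converted to IUPAC-condensed notation, and columns mapping to the same glycan were averaged. The binding signal is a within-array Z-score, averaged across arrays of the same protein sequence at different concentrations or buffers and across linkers. Negative Z-scores can be read as non-binding.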
# [1] = biological target: Neu5Ac(a2-3)Gal(b1-4)GlcNAc
# Outline: as §1
# [2] = biological target: Neu5Ac(a2-3)Gal(b1-4)GlcNAc(b1-2)Man
# Outline: as §1
# [3] = biological target: Neu5Ac(a2-3)Gal(b1-4)GlcNAc(b1-2)Man(a1-3)[GlcNAc(b1-4)][Neu5Ac(a2-3)Gal(b1-4)GlcNAc(b1-2)Man(a1-6)]Man(b1-4)GlcNAc(b1-4)GlcNAc
# Outline: as §1
# [4] = biological target: Neu5Ac(a2-3)Gal(b1-4)GlcNAc(b1-2)Man(a1-3)[Neu5Ac(a2-3)Gal(b1-4)GlcNAc(b1-2)Man(a1-6)]Man(b1-4)GlcNAc(b1-4)GlcNAc
# Outline: as §1
# [5] = biological target: Neu5Ac(a2-3)Gal(b1-4)GlcNAc(b1-2)Man(a1-3)[Neu5Ac(a2-3)Gal(b1-4)GlcNAc(b1-2)Man(a1-6)]Man(b1-4)GlcNAc(b1-4)[Fuc(a1-6)]GlcNAc
# Outline: as §1
# [6] = biological target: Neu5Ac(a2-3)Gal(b1-4)GlcNAc(b1-2)Man(a1-3)[Neu5Ac(a2-6)Gal(b1-4)GlcNAc(b1-2)Man(a1-6)]Man(b1-4)GlcNAc(b1-4)GlcNAc
# Outline: as §1
# [7] = biological target: Neu5Ac(a2-3)Gal(b1-4)GlcNAc(b1-2)[Neu5Ac(a2-3)Gal(b1-4)GlcNAc(b1-4)]Man(a1-3)[GlcNAc(b1-4)][Neu5Ac(a2-3)Gal(b1-4)GlcNAc(b1-2)[Neu5Ac(a2-3)Gal(b1-4)GlcNAc(b1-6)]Man(a1-6)]Man(b1-4)GlcNAc(b1-4)GlcNAc
# Outline: as §1
# [8] = biological target: Neu5Ac(a2-3)Gal(b1-4)GlcNAc(b1-2)[Neu5Ac(a2-3)Gal(b1-4)GlcNAc(b1-4)]Man(a1-3)[GlcNAc(b1-4)][Neu5Ac(a2-3)Gal(b1-4)GlcNAc(b1-4)Man(a1-6)]Man(b1-4)GlcNAc(b1-4)GlcNAc
# Outline: as §1
# [9] = biological target: Neu5Ac(a2-3)Gal(b1-4)GlcNAc(b1-2)[Neu5Ac(a2-3)Gal(b1-4)GlcNAc(b1-6)]Man(a1-6)[Neu5Ac(a2-3)Gal(b1-4)GlcNAc(b1-2)Man(a1-3)]Man(b1-4)GlcNAc(b1-4)GlcNAc
# Outline: as §1
# [10] = biological target: Neu5Ac(a2-3)Gal(b1-4)GlcNAc(b1-2)[Neu5Ac(a2-3)Gal(b1-4)GlcNAc(b1-6)]Man(a1-6)[Neu5Ac(a2-3)Gal(b1-4)GlcNAc(b1-2)Man(a1-3)][GlcNAc(b1-4)]Man(b1-4)GlcNAc(b1-4)GlcNAc
# Outline: as §1
# [11] = biological target: Neu5Ac(a2-3)Gal(b1-4)GlcNAc(b1-3)Gal
# Outline: as §1
# [12] = biological target: Neu5Ac(a2-3)Gal(b1-4)GlcNAc(b1-3)Gal(b1-3)GlcNAc
# Outline: as §1
# [13] = biological target: Neu5Ac(a2-3)Gal(b1-4)GlcNAc(b1-3)Gal(b1-4)GlcNAc
# Outline: as §1
# [14] = biological target: Neu5Ac(a2-3)Gal(b1-4)GlcNAc(b1-3)Gal(b1-4)GlcNAc(b1-2)Man(a1-3)[Neu5Ac(a2-3)Gal(b1-4)GlcNAc(b1-3)Gal(b1-4)GlcNAc(b1-2)Man(a1-6)]Man(b1-4)GlcNAc(b1-4)GlcNAc
# Outline: as §1
# [15] = biological target: Neu5Ac(a2-3)Gal(b1-4)GlcNAc(b1-3)Gal(b1-4)GlcNAc(b1-3)Gal(b1-4)GlcNAc
# Outline: as §1
# [16] = biological target: Neu5Ac(a2-3)Gal(b1-4)GlcNAc(b1-3)Gal(b1-4)GlcNAc(b1-3)Gal(b1-4)GlcNAc(b1-2)Man(a1-3)[Neu5Ac(a2-3)Gal(b1-4)GlcNAc(b1-3)Gal(b1-4)GlcNAc(b1-3)Gal(b1-4)GlcNAc(b1-2)Man(a1-6)]GalNAc
# Outline: as §1
# [17] = biological target: Neu5Ac(a2-3)Gal(b1-4)GlcNAc(b1-3)Gal(b1-4)GlcNAc(b1-3)GalNAc
# Outline: as §1
# [18] = biological target: Neu5Ac(a2-3)Gal(b1-4)GlcNAc(b1-3)Gal(b1-4)GlcNAc(b1-3)[Neu5Ac(a2-3)Gal(b1-4)GlcNAc(b1-3)Gal(b1-4)GlcNAc(b1-6)]GalNAc
# Outline: as §1
# [19] = biological target: Neu5Ac(a2-3)Gal(b1-4)GlcNAc(b1-3)Gal(b1-4)GlcNAc(b1-6)[Gal(b1-3)]GalNAc
# Outline: as §1
# [20] = biological target: Neu5Ac(a2-3)Gal(b1-4)GlcNAc(b1-3)Gal(b1-4)[Fuc(a1-3)]GlcNAc
# Outline: as §1
# [21] = biological target: Neu5Ac(a2-3)Gal(b1-4)GlcNAc(b1-3)GalNAc
# Outline: as §1
# [22] = biological target: Neu5Ac(a2-3)Gal(b1-4)GlcNAc(b1-3)[Neu5Ac(a2-3)Gal(b1-4)GlcNAc(b1-6)]GalNAc
# Outline: as §1
# [23] = biological target: Neu5Ac(a2-3)Gal(b1-4)GlcNAc(b1-6)GalNAc
# Outline: as §1
# [24] = biological target: Neu5Ac(a2-3)Gal(b1-4)GlcNAc(b1-6)[Gal(b1-3)]GalNAc
# Outline: as §1
# [25] = biological target: Neu5Ac(a2-3)Gal(b1-4)GlcNAc(b1-6)[Neu5Ac(a2-3)Gal(b1-3)]GalNAc
# Outline: as §1
# [26] = biological target: Neu5Ac(a2-3)Gal(b1-4)GlcNAc6S
# Outline: as §1
# [27] = biological target: Neu5Ac(a2-3)Gal(b1-4)[Fuc(a1-3)]GlcNAc
# Outline: as §1
# [28] = biological target: Neu5Ac(a2-3)Gal(b1-4)[Fuc(a1-3)]GlcNAc(b1-2)Man
# Outline: as §1
# [29] = biological target: Neu5Ac(a2-3)Gal(b1-4)[Fuc(a1-3)]GlcNAc(b1-3)Gal
# Outline: as §1
# [30] = biological target: Neu5Ac(a2-3)Gal(b1-4)[Fuc(a1-3)]GlcNAc(b1-3)Gal(b1-4)GlcNAc
# Outline: as §1
# [31] = biological target: Neu5Ac(a2-3)Gal(b1-4)[Fuc(a1-3)]GlcNAc(b1-3)Gal(b1-4)[Fuc(a1-3)]GlcNAc(b1-3)Gal(b1-4)[Fuc(a1-3)]GlcNAc
# Outline: as §1
# [32] = biological target: Neu5Ac(a2-3)Gal(b1-4)[Fuc(a1-3)]GlcNAc(b1-3)GalNAc
# Outline: as §1
# [33] = biological target: Neu5Ac(a2-3)Gal(b1-4)[Fuc(a1-3)]GlcNAc(b1-6)[Gal(b1-3)]GalNAc
# Outline: as §1
# [34] = biological target: Neu5Ac(a2-3)Gal(b1-4)[Fuc(a1-3)]GlcNAc(b1-6)[Neu5Ac(a2-3)Gal(b1-3)]GalNAc
# Outline: as §1
# [35] = biological target: Neu5Ac(a2-3)Gal(b1-4)[Fuc(a1-3)]GlcNAc6S
# Outline: as §1
# [36] = biological target: Neu5Ac(a2-3)Gal6S(b1-4)GlcNAc
# Outline: as §1
# [37] = biological target: Neu5Ac(a2-3)Gal6S(b1-4)[Fuc(a1-3)]GlcNAc
# Outline: as §1
binder,measurement,setting,value
PX14375C-bth-509-28-509 (Bacteroides thetaiotaomicron) (protein) RSPQGQFTEDDNPNALVNGKIYNVYTMMRSFDITAGTPAIAIHYLRSEDSEKGSIPSDGSDVAEMYDDFLYTPTNGLLGSYWGKNYAIIYQCNDILDAIAEKETAGQTETEDIINKGEASFFRAYCYFNLVRAFGEVPLVTYKINDASEANIPKTTADKIYEQIDTDLKTAEESLPETWSTEYTGRLTWGAARSLHARTYMMRSDWDNMYKASTDVINKGLYNLKTPYNEIFTDDGENSGGSIFELQCTATAALPQSDVIGSQFCEVQGVRGAGQWDLGWGWHMATQLMADAYETGDPRKNATLLYFRKTDDEPITPENTNEPYGESPISPAMGAYFNKKAYTDPALRKEYTNKGFWVNIRLIRYSDVVLMAAEAANEKNIPGEAVDYLEMVRARARGTNTNILPKITTNDQGELREAIRHERRVELGLEPDRFYDLVRWGIASEVLHAAGKVNYQDKNALLPLPQSEIDKSKGVLVQNPDY,glycan array binding signal (z-score),Neu5Ac(a2-3)Gal(b1-4)Glc,-0.185
same,glycan array binding signal (z-score),[1],-0.404
same,glycan array binding signal (z-score),[2],-0.247
same,glycan array binding signal (z-score),[3],-0.41
same,glycan array binding signal (z-score),[4],-0.196
same,glycan array binding signal (z-score),[5],-0.381
same,glycan array binding signal (z-score),[6],-0.125
same,glycan array binding signal (z-score),[7],-0.215
same,glycan array binding signal (z-score),[8],-0.258
same,glycan array binding signal (z-score),[9],0.442
same,glycan array binding signal (z-score),[10],-0.181
same,glycan array binding signal (z-score),[11],-0.186
same,glycan array binding signal (z-score),[12],-0.468
same,glycan array binding signal (z-score),[13],-0.222
same,glycan array binding signal (z-score),[14],0.037
same,glycan array binding signal (z-score),[15],-0.503
same,glycan array binding signal (z-score),[16],5.44
same,glycan array binding signal (z-score),[17],-0.201
same,glycan array binding signal (z-score),[18],-0.04
same,glycan array binding signal (z-score),[19],-0.22
same,glycan array binding signal (z-score),[20],-0.367
same,glycan array binding signal (z-score),[21],-0.438
same,glycan array binding signal (z-score),[22],0.019
same,glycan array binding signal (z-score),[23],-0.063
same,glycan array binding signal (z-score),[24],-0.149
same,glycan array binding signal (z-score),[25],-0.14
same,glycan array binding signal (z-score),[26],-0.321
same,glycan array binding signal (z-score),[27],-0.1
same,glycan array binding signal (z-score),[28],-0.271
same,glycan array binding signal (z-score),[29],-0.286
same,glycan array binding signal (z-score),[30],-0.087
same,glycan array binding signal (z-score),[31],-0.299
same,glycan array binding signal (z-score),[32],-0.014
same,glycan array binding signal (z-score),[33],-0.056
same,glycan array binding signal (z-score),[34],0.645
same,glycan array binding signal (z-score),[35],0.069
same,glycan array binding signal (z-score),[36],-0.485
same,glycan array binding signal (z-score),[37],-0.309
